Patent publication US12116397B2, “IL-IR-I binding polypeptide” (Swedish Orphan Biovitrum AB (publ), priority 2017, dated 2024)
Residue numbers refer to the chain shown, from its start. Numbers in names are those of the source.

Legend:
hIL-1R-I = target: T1, hIL-1R-I (Homo sapiens, UniProt P14778); experiment: Biolayer interferometry (BLI) kinetic analysis of Z-Fc fusion proteins, human IL-1R-I; type: binding; conditions: 25° C.
T1 construct: purchased R&D Systems 269-1R/CF
T1 sequence (P14778 18-569): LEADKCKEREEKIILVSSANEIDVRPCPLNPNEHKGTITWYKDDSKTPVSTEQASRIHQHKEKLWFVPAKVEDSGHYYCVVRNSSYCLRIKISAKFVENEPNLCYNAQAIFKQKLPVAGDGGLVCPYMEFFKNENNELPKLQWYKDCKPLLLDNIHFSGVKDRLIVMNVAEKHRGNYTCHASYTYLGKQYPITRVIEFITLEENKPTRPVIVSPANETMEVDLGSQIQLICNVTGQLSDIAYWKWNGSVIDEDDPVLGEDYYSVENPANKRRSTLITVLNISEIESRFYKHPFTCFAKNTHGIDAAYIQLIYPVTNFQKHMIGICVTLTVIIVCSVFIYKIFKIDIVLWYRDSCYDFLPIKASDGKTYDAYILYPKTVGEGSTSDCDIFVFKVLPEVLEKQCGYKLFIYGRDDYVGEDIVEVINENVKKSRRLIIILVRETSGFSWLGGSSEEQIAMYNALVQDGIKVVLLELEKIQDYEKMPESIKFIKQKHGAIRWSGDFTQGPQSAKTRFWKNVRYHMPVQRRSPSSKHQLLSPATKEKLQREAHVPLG
Protocol: (§1) Binding of four IL-1R-I binding fusion proteins to human and cynomolgus IL-1R-I was analyzed using BLI. The Fc fused IL-1R-I binding Z variants denoted PS10536, PS10537, PS10534 and PS10535 (SEQ ID NO:1648, 1649, 1646, 1647) were loaded onto a Protein A sensor (Pall, ForteBio cat. no. 18-5010) at 0.5 μg/ml for 150 s in each cycle using an OctetRED96 instrument (Pall, ForteBio). Subsequently, these sensors were exposed to different and increasing concentrations of human IL-1R-I (R&D systems cat. no. 269-1R/CF) ranging from 0.15 to 5 nM or cynomolgus IL-1R-I (SEQ ID NO:1665) ranging from 2.5 to 80 nM. Association was recorded for 300 s and dissociation for 300 s (human) or 90 s (cynomolgus) and spectrograms were recorded and analyzed according to a 1:1 Langmuir model using global fit (Octet System Data Analysis 8.2 software, Pall, ForteBio). Each sensor was referenced to a sensor with the same ligand loaded onto it but exposed to buffer only. Following each association/dissociation cycle, all sensors were regenerated by three pulses of 10 mM glycine at pH 2.5 for 10 s each. All steps were carried out at 25° C. at a shaking speed of 1000 rpm and all dilutions of fusion proteins (Z-Fc fusion proteins) and analytes (human or cynomolgus IL-1R-1) were in 1×kinetics buffer (Pall, ForteBio).

cynomolgus IL-1R-I = experiment: Biolayer interferometry (BLI) kinetic analysis of Z-Fc fusion proteins, cynomolgus IL-1R-I; type: binding; conditions: 25° C.
Protocol: as §1

[1] = In vivo pharmacokinetics of an IL-1R-I binding fusion protein in monkeys; parameters: species or system male Cynomolgus monkeys
Protocol: The IL-1R-I binding fusion protein denoted PS10536 (SEQ ID NO:1648) was constituted as a solution in 25 mM sodium phosphate and 125 mM sodium chloride, pH 7.0.
The pharmacokinetic properties of PS10536 were investigated in naïve male Cynomolgus monkeys. Three monkeys were given an i.v. single dose of 5 mg/kg (1 ml/kg) injected in the tail vein and another three monkeys were given a s.c. single dose of 10 mg/kg (1 ml/kg) injected in the dorsal region. Blood samples for serum preparation were collected pre dosing and at 5 and 20 min, 1, 2, 4, 8, 12, 24, 48, 72, 96, 120, 144, 168, 240 and 504 hrs post i.v. dosing, or 20 min, 1, 2, 4, 8, 12, 24, 48, 72, 96, 120, 144, 168, 240 and 504 hrs post s.c. dosing.
Quantification of PS10536 in serum from monkeys was performed according to the ELISA described in Example 13.
Pharmacokinetic parameters were based on individual serum concentration versus time data and determined using WinNonlin software as described in Example 13. Estimation of the terminal slope following i.v. dosing was based on seven data points, from 72 to 504 hrs. Estimation of the terminal slope following s.c. dosing was based on eight data points, from 48 to 504 hrs. Calculation of the subcutaneous bioavailability (F) was performed using Microsoft Excel.

[2] = In vivo pharmacokinetics of IL-1R-I binding fusion proteins in rats; parameters: species or system male Sprague-Dawley rats; conditions: male rats
Protocol: The IL-1R-I binding fusion proteins PS10534, PS10535, PS10536, PS10537, PS10538 and PS10539 (see Table 22, SEQ ID NO:1646-1651) were evaluated in this study. All six test items were constituted as a solution in 25 mM sodium phosphate and 125 mM sodium chloride, pH 7.0.
The pharmacokinetic properties of the six fusion proteins were investigated in male Sprague-Dawley rats. For each test item, three rats were given an i.v. single dose of 15 mg/kg (2.5 ml/kg) injected in the lateral tail vein and another three rats were given a s.c. single dose of 30 mg/kg (5 ml/kg) injected in the neck region. Blood samples for serum preparation were collected pre dosing and at 5 and 20 min, 1, 4, 8, 24, 48, 72 and 96 hrs post i.v. dosing, or 20 min, 1, 4, 8, 24, 48, 72, 96 and 120 hrs post s.c. dosing.
Determination of fusion protein levels in rat serum samples was performed by enzyme-linked immunosorbent assay (ELISA). The ELISA assay employed the quantitative sandwich enzyme immunoassay technique.
In brief; a goat polyclonal anti-Z antibody recognizing the Z variant domain of the IL-1R-I binding fusion protein (produced in house, Affibody AB) was coated onto a microplate. Unbound polyclonal antibody was washed away and casein was added as blocking agent to reduce unspecific binding to the plastic surface. After removal of unbound casein by a second wash step, standards and samples were pipetted to the wells and any fusion protein present was bound to the immobilized antibody. After washing away any unbound substances, a HRP labeled Swine anti-rabbit antibody (Dako, cat. no. P0399) was added. Following a wash to remove any unbound anti-rabbit HRP reagent, a substrate solution was added to the wells and color developed in proportion to the amount of fusion protein bound in the initial step. The color development was stopped and the intensity of the color was measured.
The pharmacokinetic analysis was based on median serum concentration versus time data from each dose group. The observed maximum concentration (Cmax) and the time to maximum serum concentration (tmax) were taken directly from the bioanalytical data. Other pharmacokinetic parameters, i.e. clearance (CL), apparent clearance following s.c. administration (CL/F), apparent volume of distribution at steady-state (Vss), mean residence time (MRT) and terminal half-life (t1/2z), were estimated by non-compartmental analysis using Phoenix WinNonlin software version 6.3 (Pharsight Corp., USA). Estimation of the terminal slope following i.v. dosing was based on four data points, from 24 to 96 hrs. Estimation of the terminal slope following s.c. dosing was based on five data points, from 24 to 120 hrs. Calculation of the subcutaneous bioavailability (F) was performed using Microsoft Excel.

human biotinylated FcRn = target: T2, human biotinylated FcRn (Homo sapiens, UniProt P55899); experiment: Biacore FcRn affinity analysis; type: binding; conditions: five concentrations 2.5-200 nM
T2 construct: purchased Immunitrack ApS

[3] = i.v. single dose 5 mg/kg, male Cynomolgus monkeys
[4] = male monkeys, intravenous single dose 5.04 mg/kg, mean ±SD, n=3
[5] = male monkeys, subcutaneous single dose 10.1 mg/kg, mean ±SD, n=3
[6] = s.c. single dose 10 mg/kg, male Cynomolgus monkeys
[7] = intravenous single dose 15 mg/kg
[8] = subcutaneous single dose 30 mg/kg

T2 sequence (P55899 24-297 limits assumed): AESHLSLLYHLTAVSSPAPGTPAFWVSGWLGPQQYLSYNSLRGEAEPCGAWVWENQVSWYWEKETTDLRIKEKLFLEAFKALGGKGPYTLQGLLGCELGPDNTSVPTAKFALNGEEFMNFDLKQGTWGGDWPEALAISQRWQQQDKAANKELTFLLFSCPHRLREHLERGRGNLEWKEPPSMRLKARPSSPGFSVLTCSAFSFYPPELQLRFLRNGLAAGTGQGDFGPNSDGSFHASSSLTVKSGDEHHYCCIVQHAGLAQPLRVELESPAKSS
T2 sequence (P61769 21-119 partner): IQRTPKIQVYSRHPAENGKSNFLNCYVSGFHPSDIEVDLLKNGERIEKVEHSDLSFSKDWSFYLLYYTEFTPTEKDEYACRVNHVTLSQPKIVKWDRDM

B1: PS10536: Fc fused IL-1R-I binding Z variant (Z18754 variant with IgG1 Fc) (protein)
chain: AEAKYAKEVEEIQMEIFRLPNLTRRQYTAFIRKLLDDPSQSSELLSEAKKLSESQAPKASGGGGSGGGGS[sequence of human IgG1 Fc omitted]
modifications: Engineered IL-1R-I binding polypeptide
With B1 the koff (hIL-1R-I) was 0.000679 s⁻¹, the kon (hIL-1R-I) was 899000 M⁻¹ s⁻¹ and the koff (cynomolgus IL-1R-I) was 0.0234 s⁻¹. It also gave a kon (cynomolgus IL-1R-I) of 1.7e+06 M⁻¹ s⁻¹, a mean residence time [1, 3] of 109 h and a volume of distribution [1, 3] of 0.117 L/kg. It also gave an MRT [1, 4] of 109 ± 1 h, a Vss [1, 4] of 0.117 ± 0.003 L/kg and a t1/2z [1, 4] of 92.7 ± 3.7 h. For the same molecule, the Cmax [1, 5] was 779 ± 159 nM, the F [1, 5] was 73.9 ± 5.5% and the MRT [1, 5] was 115 ± 14 h. It also gave a Vz/F [1, 5] of 0.163 ± 0.023 L/kg, a t1/2z [1, 5] of 77.3 ± 6.3 h and a tmax [1, 5] of 18.7 ± 7.5 h. The half-life [1, 6] was 77.3 h, the mean subcutaneous bioavailability [1, 6] was 73.9% and the “time of peak levels after dosing (average)” value [1, 6] was 18.7 h. It also gave an MRT [2, 7] of 53.5 h, a Vss [2, 7] of 0.143 L/kg and a t1/2z [2, 7] of 44.7 h. The Cmax [2, 8] was 948 nM, the F [2, 8] was 46.7% and the MRT [2, 8] was 74.5 h. For the same molecule, the Vz/F [2, 8] was 0.403 L/kg, the t1/2z [2, 8] was 46.1 h and the tmax [2, 8] was 24 h.

B2: PS10654: fusion of Z18754 with mutated IgG1 Fc, N297A and LS mutations (protein)
chain: AEAKYAKEVEEIQMEIFRLPNLTRRQYTAFIRKLLDDPSQSSELLSEAKKLSESQAPKASGGGGSGGGGSDKTHTCPPCPAPELLGGPSVFLFPPKPKDTLMISRTPEVTCVVVDVSHEDPEVKFNWYVDGVEVHNAKTKPREEQYASTYRVVSVLTVLHQDWLNGKEYKCKVSNKALPAPIEKTISKAKGQPREPQVYTLPPSRDELTKNQVSLTCLVKGFYPSDIAVEWESNGQPENNYKTTPPVLDSDGSFFLYSKLTVDKSRWQQGNVFSCSVLHEALHSHYTQKSLSLSPGK
modifications: LS mutations; Engineered IL-1R-I binding polypeptide
For B2, the “affinity towards FcRn (order / change)” value (human biotinylated FcRn; listed as SEQ ID NO 1735) was “SEQ ID NO 1735>SEQ ID NO 1736>SEQ ID NO 1734=SEQ ID NO 1737” and the “affinity towards FcRn (order / change)” value (human biotinylated FcRn; listed as SEQ ID NO:1735) was “greatest increase”.

B3: PS10655: fusion of Z18754 with mutated IgG1 Fc, N297A and YTE mutations (protein)
chain: B2 chain with M102Y, S104T, T106E, L278M, S284N
modifications: YTE mutations; Engineered IL-1R-I binding polypeptide
For B3, the “affinity towards FcRn (order / change)” value (human biotinylated FcRn; listed as SEQ ID NO 1736) was “SEQ ID NO 1735>SEQ ID NO 1736>SEQ ID NO 1734=SEQ ID NO 1737” and the “affinity towards FcRn (order / change)” value (human biotinylated FcRn; listed as SEQ ID NO:1736) was “increased affinity”.

B4: PS10534: Fc fused IL-1R-I binding Z variant (protein)
chain: B1 chain with V9I, I12V, R18Y
modifications: Engineered IL-1R-I binding polypeptide
B4 gave a koff (hIL-1R-I) of 0.000642 s⁻¹, a kon (hIL-1R-I) of 404000 M⁻¹ s⁻¹ and a koff (cynomolgus IL-1R-I) of 0.0299 s⁻¹. It also gave a kon (cynomolgus IL-1R-I) of 1.08e+06 M⁻¹ s⁻¹, an MRT [2, 7] of 56.4 h and a Vss [2, 7] of 0.159 L/kg. For the same molecule, the t1/2z [2, 7] was 48.7 h, the Cmax [2, 8] was 828 nM and the F [2, 8] was 41.5%. The MRT [2, 8] was 72.4 h, the Vz/F [2, 8] was 0.445 L/kg and the t1/2z [2, 8] was 45.3 h. For the same molecule, the tmax [2, 8] was 24 h.

B5: PS10535: Fc fused IL-1R-I binding Z variant (protein)
chain: B1 chain with V9I, R18H
modifications: Engineered IL-1R-I binding polypeptide
Molecule B5 has a koff (hIL-1R-I) of 0.000421 s⁻¹, a kon (hIL-1R-I) of 583000 M⁻¹ s⁻¹ and a koff (cynomolgus IL-1R-I) of 0.0166 s⁻¹. The kon (cynomolgus IL-1R-I) was 1.49e+06 M⁻¹ s⁻¹, the MRT [2, 7] was 62.1 h and the Vss [2, 7] was 0.149 L/kg. For the same molecule, the t1/2z [2, 7] was 52.1 h, the Cmax [2, 8] was 866 nM and the F [2, 8] was 49.6%. The MRT [2, 8] was 87.3 h, the Vz/F [2, 8] was 0.457 L/kg and the t1/2z [2, 8] was 55.6 h. It also gave a tmax [2, 8] of 24 h.

B6: PS10537: Fc fused IL-1R-I binding Z variant (protein)
chain: B1 chain with E11D, M14L, R18A
modifications: Engineered IL-1R-I binding polypeptide
In the case of B6, the koff (hIL-1R-I) is reported as 0.00102 s⁻¹, the kon (hIL-1R-I) is reported as 841000 M⁻¹ s⁻¹ and the koff (cynomolgus IL-1R-I) is reported as 0.0548 s⁻¹. The kon (cynomolgus IL-1R-I) was 1.78e+06 M⁻¹ s⁻¹, the MRT [2, 7] was 65.9 h and the Vss [2, 7] was 0.136 L/kg. It also gave a t1/2z [2, 7] of 55.1 h, a Cmax [2, 8] of 1115 nM and an F [2, 8] of 60.3%. The MRT [2, 8] was 87.4 h, the Vz/F [2, 8] was 0.372 L/kg and the t1/2z [2, 8] was 55.1 h. The tmax [2, 8] was 24 h.
